# Source: the supplement of paper PMC4604168 (melanoma cell lines)
# The list shows a part of the results. Many values rest on one well or one pass, so single values are uncertain.
# Tests used:
# Assay in all cases: cell count relative to DMSO control; melanoma cells; higher = more viable cells
# Conditions in all cases: library dose: low library concentration; 72 h
# WM115 = test system: WM115
# WM1716 = test system: WM1716
# WM1745 = test system: WM1745
# WM3526 = test system: WM3526
# WM3619 = test system: WM3619
# WM451Lu = test system: WM451Lu
# 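Also: cell number obtained by counting DAPI-stained nuclei in high-throughput microscope images with image analysis software, screen run in 1,536-well plates.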
SMILES,cell count (WM115) [%],cell count (WM1716) [%],cell count (WM1745) [%],cell count (WM3526) [%],cell count (WM3619) [%],cell count (WM451Lu) [%]
"Cn1cnc2c(F)c(Nc3ccc(Br)cc3Cl)c(C(=O)NOCCO)cc21 [selumetinib] + Cn1cncc1[C@@](N)(c1ccc(Cl)cc1)c1ccc2c(c1)c(-c1cccc(Cl)c1)cc(=O)n2C [tipifarnib] (first compound 0.015 µM, partner dose 0.01 µM)",75.7,100,103,71.4,66,102
"C[C@]1(O)C[C@@H](c2nc(-c3ccc4ccc(-c5ccccc5)nc4c3)c3c(N)nccn32)C1 + COc1ccc(COc2ccc(Cc3cnc(N)nc3N)cc2OC)cc1 [GW2580] (first compound 0.4 µM, partner dose 1 µM)",99.8,106,73.1,86.3,103,86.6
"CCN(CC)CCNC(=O)c1c(C)[nH]c(/C=C2\C(=O)Nc3ccc(F)cc32)c1C [sunitinib] + CO[C@@H]1[C@H](N(C)C(=O)c2ccccc2)C[C@H]2O[C@]1(C)n1c3ccccc3c3c4c(c5c6ccccc6n2c5c31)C(=O)NC4 [Midostaurin] (first compound 0.4 µM, partner dose 0.08 µM)",91,99.3,44.1,92.9,89,99.8
"COc1cc([C@@H]2c3cc4c(cc3[C@@H](O[C@@H]3O[C@@H]5CO[C@@H](C)O[C@H]5[C@H](O)[C@H]3O)[C@H]3COC(=O)[C@H]23)OCO4)cc(OC)c1O [etoposide] + Cc1nc(Nc2ncc(C(=O)Nc3c(C)cccc3Cl)s2)cc(N2CCN(CCO)CC2)n1 [dasatanib] (first compound 0.02 µM, partner dose 0.004 µM)",73.9,78.4,62,106,113,89.3
"CCN(CC)CCNC(=O)c1c(C)[nH]c(/C=C2\C(=O)Nc3ccc(F)cc32)c1C [sunitinib] + NC1(c2ccc(-c3nc4ccn5c(=O)[nH]nc5c4cc3-c3ccccc3)cc2)CCC1 [MK2206] (first compound 0.4 µM, partner dose 0.4 µM)",75,125,68.5,64.2,61.2,106
"CCN(CC)CCNC(=O)c1c(C)[nH]c(/C=C2\C(=O)Nc3ccc(F)cc32)c1C [sunitinib] + Oc1cc(-c2nc(-c3ccccc3)[nH]c2-c2ccncc2)ccc1Cl [L779450] (first compound 0.4 µM, partner dose 0.2 µM)",71.2,131,69.4,46.1,129,79.9
"COc1cc([C@@H]2c3cc4c(cc3[C@@H](O[C@@H]3O[C@@H]5CO[C@@H](C)O[C@H]5[C@H](O)[C@H]3O)[C@H]3COC(=O)[C@H]23)OCO4)cc(OC)c1O [etoposide] + Cc1cc([N+](=O)[O-])ccc1NS(=O)(=O)c1cc(Cl)ccc1Cl [FH535] (first compound 0.02 µM, partner dose 1 µM)",89.2,88.2,104,109,93.4,108
"CCN(CC)CCNC(=O)c1c(C)[nH]c(/C=C2\C(=O)Nc3ccc(F)cc32)c1C [sunitinib] + CCCCCCCCCCCC1=C(O)C(=O)C=C(O)C1=O [Embelin] (first compound 0.4 µM, partner dose 1.2 µM)",100,147,92.3,84.7,147,87.8
"C[C@]1(O)C[C@@H](c2nc(-c3ccc4ccc(-c5ccccc5)nc4c3)c3c(N)nccn32)C1 + Cc1cc(Nc2cc(N3CCN(C)CC3)nc(/C=C/c3ccccc3)n2)n[nH]1 [ENMD2076] (first compound 0.4 µM, partner dose 0.04 µM)",94.7,105,79.3,89.6,97,124
"COc1cc([C@@H]2c3cc4c(cc3[C@@H](O[C@@H]3O[C@@H]5CO[C@@H](C)O[C@H]5[C@H](O)[C@H]3O)[C@H]3COC(=O)[C@H]23)OCO4)cc(OC)c1O [etoposide] + CN(C)S(=O)(=O)c1ccc2c(c1)/C(=C/c1cc3c([nH]1)CCCC3)C(=O)N2 [SU6656] (first compound 0.02 µM, partner dose 0.4 µM)",77.5,97.4,118,105,89.3,135
"COc1cc([C@@H]2c3cc4c(cc3[C@@H](O[C@@H]3O[C@@H]5CO[C@@H](C)O[C@H]5[C@H](O)[C@H]3O)[C@H]3COC(=O)[C@H]23)OCO4)cc(OC)c1O [etoposide] + Clc1ccc(Nc2nnc(Cc3ccncc3)c3ccccc23)cc1 [vatalanib] (first compound 0.02 µM, partner dose 2 µM)",92.9,82.6,104,94.5,98.2,99.1
